Reference: PubChem BioAssay AID624330 (Southern Research Specialized Biocontainment Screening …, 2012)
The whole screen tested about 340,000 compounds, of which about 2,100 (0.62%) were called active. The inconclusive results got no clear call from the source; some entries with a clear call stand among them for comparison.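 How the source made its calls: active means first-screen hits whose inhibition reached a set limit at any dose in the follow-up dose series; inconclusive means inhibition above the set first-screen limit but never retested; inactive means the rest.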

Each compound was assayed against Rac GTPase-activating protein 1 (Homo sapiens) (UniProt Q9H0H5) (assay: blockers of MgcRacGAP-driven Rac1 GTP hydrolysis – biochemical, ADP Hunter fluorescence, primary and confirmatory, confirmation (AID 624330;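 further: fluorescence reports GDP produced by GAP-driven GTP hydrolysis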)). Settings: MgcRacGAP-stimulated Rac1 GTP hydrolysis, at 30 µM, active compounds read high, GST-tagged Rac1 F28L mutant substrate.
Chain of UniProt Q9H0H5 (Q9H0H5 whole entry, looked up): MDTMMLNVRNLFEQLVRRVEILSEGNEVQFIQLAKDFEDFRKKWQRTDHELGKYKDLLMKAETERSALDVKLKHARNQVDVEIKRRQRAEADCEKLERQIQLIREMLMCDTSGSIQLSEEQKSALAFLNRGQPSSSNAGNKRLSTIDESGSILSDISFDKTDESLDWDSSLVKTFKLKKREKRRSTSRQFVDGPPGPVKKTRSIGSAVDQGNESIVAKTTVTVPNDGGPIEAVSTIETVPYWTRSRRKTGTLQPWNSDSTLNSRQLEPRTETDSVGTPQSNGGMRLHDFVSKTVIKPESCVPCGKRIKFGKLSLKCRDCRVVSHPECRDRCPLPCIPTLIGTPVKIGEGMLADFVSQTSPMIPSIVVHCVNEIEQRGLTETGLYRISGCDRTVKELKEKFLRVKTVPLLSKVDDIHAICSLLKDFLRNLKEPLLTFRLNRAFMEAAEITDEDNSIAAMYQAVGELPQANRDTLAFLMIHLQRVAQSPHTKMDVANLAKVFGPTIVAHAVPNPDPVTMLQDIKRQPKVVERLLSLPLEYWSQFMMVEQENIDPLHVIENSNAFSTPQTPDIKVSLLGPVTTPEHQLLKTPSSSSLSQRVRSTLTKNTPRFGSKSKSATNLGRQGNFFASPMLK
`Nc1ccccc1SC(C[N+](=O)[O-])c1ccccc1` (stereo not drawn) was tested, and the inhibition was inconclusive: 61.4%.
`COc1ccc(NS(=O)(=O)c2cc(N)ccc2N2CCCC2)cc1` was tested, and the inhibition was inconclusive: 35.8%.
In the case of `Oc1ccc(Nc2nc3ccccc3nc2Nc2ccc(O)cc2)cc1`, the inhibition was inconclusive: 34.2%.
In the case of `CC1CCN(CC(=O)Nc2ccc(N3CCCCCC3)cc2)CC1`, the inhibition was inconclusive: 33.7%.
For `O=c1[nH]c2c(s1)C(c1ccc(O)cc1)C1C3CCC(C3)C1S2` (stereo not drawn), the inhibition was inactive: 11.5%.
In the case of `Cc1ccc(-c2nc3ncccc3o2)cc1NC(=O)CC(C)C`, the inhibition was inactive: 4.77%.
With `COc1ccc(N2CCC(CNC(=S)Nc3ccc(C)cc3C)C2)cc1` (stereo not drawn) the inhibition was inconclusive: 38.3%.
In the case of `Cc1cc(OCCOCCNCc2ccccc2)ccc1C(C)C`, the inhibition was inconclusive: 35.6%.
`Cc1ccccc1NC(=O)c1c(C)nn(-c2ccccc2)c1Cl` was tested, and the inhibition was inactive: 8.16%.
In the case of `CCOC(=O)N1CCN(CC(=O)N2c3ccccc3CCc3ccccc32)CC1`, the inhibition was inconclusive: 35.6%.
`CCc1ccc2cccc3c2c1N=CN3C` was tested, and the inhibition was inconclusive: 125%.
In the case of `CCOC(=O)Cc1nnc(NC(=O)CSc2ccc(Cl)cc2)s1`, the inhibition was inactive: 0.78%.
For `Cc1ccc(N)cc1O`, the inhibition was inconclusive: 35.8%.
For `O=C(O)COc1ccc(Nc2ccccc2)cc1`, the inhibition was inconclusive: 52.4%.
In the case of `COc1ccc(N2CCC(CNC(=O)Nc3cccc(OC)c3)C2)cc1` (stereo not drawn), the inhibition was inconclusive: 86.3%.
`O=C(O)/C=C/C(=O)c1ccc2c(c1)CCc1ccccc1-2` was tested, and the inhibition was inconclusive: 44%.
With `COc1cc(C(=O)N2CCC(N3CCCCCC3)CC2)cc(OC)c1OC` the inhibition was inconclusive: 33.6%.
`O=C(NCCO)c1ccc(-c2nnc(Nc3ccc(O)cc3)c3ccccc23)cc1` was tested, and the inhibition was inconclusive: 63.9%.
With `CCCCCC(=O)Nc1ccc(N2CCOCC2)c(S(=O)(=O)Nc2ccc(OC)cc2)c1` the inhibition was inactive: 10.2%.
In the case of `C#CCOCCOCCOCCNc1nc(N2CCN(C(=O)CCCCCCCCCCNC(=O)Cn3cc(CCCCCN)nn3)CC2)nc(N2CCN(C(=O)CCCCCCCCCCNC(=O)Cn3cc(C[C@@H](C)O)nn3)CC2)n1`, the inhibition was inconclusive: 46%.
`Cc1cc(C)nc(Nc2ccc(O)cc2)n1` was tested, and the inhibition was inconclusive: 83%.
With `COc1cccc(CNc2ccc(S(N)(=O)=O)cc2)c1OC` the inhibition was inactive: -0.0267%.
`COc1c(O)c(=O)n2c3ccccc3c3ccnc1c32` was tested, and the inhibition was inconclusive: 35.8%.
`COC(=O)CSC1=NS(=O)(=O)c2ccccc21` was tested, and the inhibition was inconclusive: 32.5%.
For `O=C(NC(c1ccccc1)c1ccccc1)C1CCCN(S(=O)(=O)c2cnc[nH]2)C1` (stereo not drawn), the inhibition was inactive: 1.47%.
With `CC1=CC(C)(C)N(C(=O)CNC2CCCCC2)c2cc(C)ccc21` the inhibition was inactive: 30.1%.
For `CCOC(=O)Cc1csc(NC(=O)NC2(C(F)(F)F)Oc3ccc(Cl)cc3O2)n1` (stereo not drawn), the inhibition was inconclusive: 39.2%.
`O=c1[nH]c(=S)[nH]c2c1C(c1ccc(Br)cc1)c1c([nH]c(=S)[nH]c1=O)O2` was tested, and the inhibition was inconclusive: 105%.
`CCC1CCCCN1C(=O)CSc1nc(N)cc(=O)[nH]1` (stereo not drawn) was tested, and the inhibition was inactive: 9.52%.
`CCSc1ccc2c(c1)N(CCCN1CCN(C)CC1)c1ccccc1S2` was tested, and the inhibition was inconclusive: 75.9%.
With `Cc1nc2ccc(N)cc2c(=O)n1Cc1ccc(Cl)cc1` the inhibition was inactive: 4.23%.
For `O=c1[nH]c(/C=C\c2ccc(O)c(Cl)c2)nc(O)c1[N+](=O)[O-]`, the inhibition was inconclusive: 32%.
`O=Nc1ccc(NOC(=O)c2ccccc2Br)cc1` was tested, and the inhibition was inconclusive: 34.2%.
In the case of `O=C(/C=C/c1ccc(O)cc1)c1ccccc1`, the inhibition was inconclusive: 54.7%.
In the case of `Nc1ccc2nc(-c3ccccn3)[nH]c2c1`, the inhibition was inconclusive: 35.1%.
`CN(C)c1nc(=NCc2ccco2)ss1` was tested, and the inhibition was inconclusive: 37.4%.
`O=S(c1ccc2ccccc2c1)c1cnns1` (stereo not drawn) was tested, and the inhibition was inconclusive: 63.5%.
In the case of `CC(C)C(O)(C#CCN1CCCCC1)c1ccccc1` (stereo not drawn), the inhibition was inactive: -1.57%.
`O=C(NCc1ccco1)c1ccc(S(=O)(=O)N2CCOCC2)cc1` was tested, and the inhibition was inactive: 12.1%.
With `COc1ccccc1CNCC(=O)Nc1cc(S(=O)(=O)N2CCCCCC2)ccc1Cl` the inhibition was inconclusive: 33%.
In the case of `CCOC(=O)C1CCN(Cc2ccc(N(C)C)cc2)CC1`, the inhibition was inconclusive: 32%.
`COC(=O)/C(=C\c1ccc([N+](=O)[O-])cc1)NC(=O)c1ccccc1` was tested, and the inhibition was inactive: -0.53%.
In the case of `COc1cc(/C=C2\N=C3CCCCCN3C2=O)ccc1O`, the inhibition was inconclusive: 66.8%.
`CN1CCN(CC(O)Cn2c3ccccc3c3ccccc32)CC1` (stereo not drawn) was tested, and the inhibition was inconclusive: 33.8%.
For `CCOC(=O)C1CCCCN1Cc1cccc(OCc2ccccc2)c1` (stereo not drawn), the inhibition was inconclusive: 33.5%.
For `CC(=O)Nc1cc(-c2ccccc2)nn1Cc1ccc(Cl)cc1`, the inhibition was inactive: -1.04%.
In the case of `CCN(CC)c1ccc(/C=N/N=C(N)N)c(O)c1`, the inhibition was inconclusive: 37.1%.
For `O=C(CSc1cn(CCNC(=O)c2ccc3ccccc3c2)c2ccccc12)NCc1ccco1`, the inhibition was inactive: 11.1%.
